Assay results reported in publication PMC9845987 (Cancer research, 2023).

Experiments:
[1] = test system: COLO792, MeWo and WM3918 cells; experiment: NucView Caspase-3/7 apoptosis assay; type: cell-based, human; details: 48 or 72 h; increasing concentrations
[2] = test system: p-SYK^Y525/526 in WM3918 xenograft tumors; experiment: Xenograft pharmacodynamic Western blot; type: in vivo, mouse; details: single dose 100 mg/kg IP; 0.5 h after dosing
[3] = test system: MeWo and WM3918 cells; details: increasing concentrations, 48 h

## N-(2-chloro-5-(4-((3-chloro-4-fluorophenyl)amino)-3-cyanoquinolin-6-yl)pyridin-3-yl)methanesulfonamide [MTX-216]
[1]
  Frequency of apoptotic cells (high caspase activity): dose-dependent increase in the frequency of apoptotic cells
[2]
  p-SYK levels in excised tumors: significant reduction
[3]
  Potency in reducing mitochondrial mass (MitoTracker Deep Red): significantly more potent than MTX-211 in reducing both mitochondrial markers
